167 variants from the RNAGym collection of RNA variant scans (doi:10.7554/elife.90254) can be followed below.

Read counts are not given, so values of variants with three or more changes are uncertain.

B1: LINE1-mini (parent)
chain: GGCAGAGCUCAACACAGCGUGGCAAAGUGGCUGUGGCUAGACUGCC

The series covers variants of B1. The experiment in a line: self-cleavage, relative activity (ratio to wild type); higher = more cleavage; in vitro, sequencing; the parent is a self-cleaving ribozyme.
As for G5A U34C C42A, the self-cleavage worked out at 0.04. A4U G5U C18U U20G U32G: the self-cleavage amounted to 0.01. Consider G5A U9G G22U G35A G36U A39U, for which the self-cleavage was found to be 0.04.

Regarding G5C A11G G27C C37G G40U C45G, the self-cleavage came out at 0.01. Then G5A C8A A14G C23G G36U C46U, with 0.22. Then G5A G7U G21U G40U, with 0.08; and G5A G7C C37A, with 0.09; and G5A G33A G44A, with 0.02. Then G5A C15A C18G G30A C31G G33A, with 0.02; and A4U U28G C45U, with 0.27. Regarding G5A C8A G21A, the self-cleavage was 2.34.

Regarding G5A C8G A11G C31U, the self-cleavage turned out to be 0.01. In the case of G5A C37G G44C, the self-cleavage was 0.01. The figure for A4U G36C U43A is 0.01. The figure for G5A G19A U28C G35A is 0.1; for A4U G5A C23G G44C it is 0.64; for A4U U34C G36C A39U it is 0.09. The figure for G5A G30A U32C C45A is 0.06. As for G5A C31G A41U C46U, the self-cleavage is 0.05. The figure for G5A G21U C45U is 0.6; for G5A A6C G30U A39C C42A it is 0.06. Take G5A G29A C46A: the self-cleavage is 0.47. Then G5A A24C G27U, with 0.15; and A4U U9A C13A C18A, with 0.1. The figure for G5A G21C C46G is 0.09; for G5A C13U A16C G27A it is 0.1. For the variant G5A A16G G17U G19C G35A G36U U43C C45U, the self-cleavage turned out to be 0.1. The figure for G5A C10U A24G G36C U38C G40C is 0.01; for A4U G21U G30U C31A it is 0.15.

Regarding G5A C13G G29A, the self-cleavage came out at 0.23. The figure for G5C A6G C23U is 0.12; for G5A G17U C31G G44A it is 0.09; for G5A G7C G17A G19U it is 0.15. For G5A U20C G21U G33A C46G, the self-cleavage stood at 0.07. The figure for G5A A11G A12U G17C G30A C31A is 0; for A4U G30A G40U C42G it is 0.05; for G5A U20G G36U A41C it is 0.26. Then G5A C13G C37U G40C, with 0.04. The figure for G5A C15A A24C U32C U34G is 0.02; for G5A A12C C15U A26C G44A it is 0.04; for G5C A12U A39C it is 0.04.

With A4U U9C U34C G44A, the self-cleavage amounted to 0.03. The figure for G5A C31U G33U is 0.04; for G5A C18U G27A G29C it is 0.04. Then G5A A6C A41C, with 0.03; and G5A G19U G27U G29A G30A C37U G40U, with 0.01. Turning to G5C A6U G22A G27U G29C U34G, the self-cleavage came to 0.01. Then G5A A6G U9A U34G, with 0.07; and A4U G27A U28C G33A, with 0.12; and G5A C18A G35U U43C, with 0.06. As for G5A C10A U28C, the self-cleavage was determined as 0.02. The figure for A4U G5U C15A A25C C31U is 0.01; for A4U U9A C10G G21A U43C it is 0.03; for G5A C10A C18U G21U C23U it is 0.04.

G5A C13A A41U: the self-cleavage worked out at 0.13. Then G5C A12U C15A C42U, with 0.02. Then G5A G19U U32G G44A, with 0.03; and G5A C13U G33U A41U, with 0.05; and A4U G22A U28G, with 0.3. Then G5A C15A U28C U38A, with 0.05; and G5A C10U G19C U43A, with 0.02. Take G5A A14U G17A C23G A39C G44C: the self-cleavage worked out at 0.04. The figure for G5A C8A C18U G36U is 1.37; for G5A A11U C15G G27U C31U U32A it is 0.02; for G5A A11G G19U A26C C37G A41G it is 0.01. Regarding A4U G7A A11C U32G, the self-cleavage came out at 0.04. Then A4U G5A A24U A26U, with 0.11; and A4U U9C G22U U32G, with 0. On to G5A A6U C10U A11U A25U, for which the self-cleavage was 0.01. The figure for G5A C13A U20A C23U U28A C31G A41U is 0.01; for G5C A11G A14G C15U C18A G19A G30C C31A A41G it is 0. Then A4U G22A U32A, with 0.04; and A4U U9A A14G U38C A39G, with 0.09; and G5A C8A C10G C31G, with 0.04. Regarding A4U G5C G40U, the self-cleavage was found to be 0.08. The figure for G5A U28A G29C G33A G44U is 0.06. With G5A G29U U43C C45U, the self-cleavage came to 0.07. Then A4U U9G U38C C45A, with 0.01; and G5C A6G A25C C37U G40U, with 0.07; and G5A C13U C18U, with 0.08. Then G5A G7U A25U U38C C42A, with 0.01; and A4U G21U G36A, with 0.14.

As for G5A C45G C46U, the self-cleavage was determined as 0.22. Regarding G5A A11U A24U, the self-cleavage was 0.03.

As to G5A A11U C13A, the self-cleavage was determined as 0. Then A4U U9C C18A, with 0.09; and A4U G19A A26U G30A C31G C45U, with 0.01; and A4U G7C A24G C37G U38C, with 0.03.

As to G5A C18G C42U, the self-cleavage worked out at 0.32. Then A4U G30A A41C G44C, with 0.05; and G5A C10G A12U A39C C42A C46G, with 0.02; and G5A U9A C15U G22U C23A G30C G35U A39C, with 0.01. Take G5A C8A U38A G40C: the self-cleavage turned out to be 0.82.

With A4U U28G C46G, the self-cleavage was determined as 0.04. With G5A C13U G40C, the self-cleavage is 0.06. Then G5C A6U U34G, with 0.05; and A4U G7C U9A C13G A39G, with 0.12; and G5C A6C G19C G22C U34C, with 0.1.

With G5A A6C C18A G19A A41G, the self-cleavage came to 0.71. Then G5C A14U C31A U32C, with 0.05; and G5A C15A A16G A24G, with 0.03. For the variant G5C A12U G17U G40A, the self-cleavage is 0.06.

For the variant G5A A6C U9C C46A, the self-cleavage was found to be 0.13. The figure for A4U G29U A41G is 0.12; for G5A C15U C23U G27C it is 0.12. The figure for G5C A12U G19U G29A G40A is 0.01; for A4U U9G G19A U38A C45G C46U it is 0.12. The figure for G5A A25U A41U is 0.08. For A4U G5C U43A, the self-cleavage came to 0.06. Then A4U G5U U9G C37G, with 0.13. Then G5A C10U C18A U28G G36A, with 0.07; and G5A G21U A25G, with 0.05; and G5A A14C C31U C37G A39U C42G, with 0.

In the case of G5C A12G A16U A24C U43C, the self-cleavage amounted to 0.03.

With G5A C8A A16C G33A G35C G40C, the self-cleavage amounted to 0.01. For G5A C10G G33U G44U, the self-cleavage turned out to be 0.04. G5C A11U A14G C15G G33U G40C: the self-cleavage turned out to be 0.

With G5A A26G G44C, the self-cleavage turned out to be 0.07.

For the variant G5A A16U G40U, the self-cleavage turned out to be 0.05. The figure for G5A A12C G19C G27C is 0.01; for A4U G7C G33U C46A it is 0.02.

On to G5A A24G G27A C37U A39G, for which the self-cleavage is 0.11. The figure for G5A G30A C31U G35U G44U is 0.01; for G5A C10G U28C C37A C45G it is 0.01. Consider G5A C15A G36C, for which the self-cleavage is 0.03. Then A4U G17A U20C U28A G30C, with 0.02. The figure for G5A G7A A11G A16U G44U is 0.03.

On to A4U U32G G40C, for which the self-cleavage was determined as 0.07. Take A4U G19U G33U: the self-cleavage turned out to be 0.03. Then G5A U9G A12U C37U A39U C46G, with 0.02; and G5C A11G C45U, with 0.04. Turning to G5A A6U C13G, the self-cleavage is 0.05. Then G5A C23A C31A C37U, with 0.23; and G5A G30A G33C G40A U43A, with 0.03. The figure for G5A G30C U34G A41G is 0.02; for G5A G35U C45A it is 0.05; for G5A U20C C42A it is 0.85. Then G5A C8A C23U A39U G44A, with 0.22; and G5A G7A G22C, with 0.18.

Turning to A4U G40A C42G, the self-cleavage was 0.02. With A4U U32A G33U A39C, the self-cleavage was found to be 0.06.

G5A C10G G33U: the self-cleavage came to 0.04. Then A4U G17U G27A, with 0.24; and A4U U20C C23G A24C G29U A41G, with 0.11. The figure for G5A C10G C37U is 0.03.

For the variant G5A C8A A14U A24U A25G, the self-cleavage came out at 0.16. The figure for G5A C23G G40A is 0.11; for G5A A6C A16C G17C it is 0.17; for G5C A12G G17C G22A C23G it is 0.01.

As for G5A C8A G29U G33U, the self-cleavage stood at 0.2.

Consider A4U U34G C37U, for which the self-cleavage came to 0.01.

As to G5A C10U A11C A41U G44C, the self-cleavage amounted to 0.03. The figure for A4U G7U U38G is 0.04. Then A4U G7U G35U, with 0.27; and A4U G40U U43A, with 0.06; and G5A G17C G21A A41G, with 0.02. For G5A C13G U38C, the self-cleavage was found to be 0.04. The figure for G5A U9G A12C C13A G21C A26U C46A is 0.04; for G5A A25C G30C C46A it is 0.03; for A4U G5U U43A it is 0.08. With G5A G29U C31U, the self-cleavage was determined as 0.02. Then G5C A14U C15A G29U G36A, with 0.03; and G5A C8G U20A A25G G33U G35U, with 0.02. Then G5A G21C C23U C31G, with 0.11. For the variant A4U G17A A25C, the self-cleavage was 0.07. Consider A4U G35U G44C, for which the self-cleavage was 0.05. The figure for G5A A16G G29A U43A G44A is 0.01.
